Laboratory results from the BET-seq Pho4 binding data (Le et al. 2018).
The list shows a part of the results. Values were computed here from the reads of four pooled replicates and scatter widely.

The sequences below were run against T1, Pho4 (S. cerevisiae) (UniProt P07270) (assay: relative binding free energy (BET-seq); higher = weaker binding). Settings: reference: library average.
T1 sequence: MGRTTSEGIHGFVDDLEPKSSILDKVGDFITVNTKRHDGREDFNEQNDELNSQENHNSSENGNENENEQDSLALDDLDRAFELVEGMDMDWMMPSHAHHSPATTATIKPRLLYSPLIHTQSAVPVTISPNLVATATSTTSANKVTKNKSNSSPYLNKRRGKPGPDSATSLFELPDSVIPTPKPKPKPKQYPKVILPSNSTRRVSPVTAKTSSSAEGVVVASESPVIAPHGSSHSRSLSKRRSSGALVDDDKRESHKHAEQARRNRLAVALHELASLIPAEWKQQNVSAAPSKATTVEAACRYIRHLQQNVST

| Sequence | relative binding free energy |
| --- | --- |
| AAAGGCACGTGGCAAG | -0.08 kcal/mol |
| TGTGCCACGTGTGGGG | -0.04 kcal/mol |
| TGTGTCACGTGGTTCA | 0.04 kcal/mol |
| TAGTCCACGTGAGGGT | 0.17 kcal/mol |
| GAGTGCACGTGAAGAG | 0.28 kcal/mol |
| AGCGTCACGTGGTTCG | -0.02 kcal/mol |
| TGTGACACGTGTTATA | -0.02 kcal/mol |
| AGATTCACGTGGGAAG | 0.39 kcal/mol |
| GGAGGCACGTGAGCTG | 0.08 kcal/mol |
| TGATGCACGTGTCGTT | -0.07 kcal/mol |
| TGGTTCACGTGTTTTG | 0.19 kcal/mol |
| TTGGGCACGTGACAGA | -0.05 kcal/mol |
| GGGTACACGTGGCGCA | 0.01 kcal/mol |
| GAGGGCACGTGAGTTT | 0.26 kcal/mol |
| ATGAACACGTGGACGG | 0.13 kcal/mol |
| CTTGACACGTGTTGTA | -0.06 kcal/mol |
| ATTAGCACGTGGAGGT | -0.21 kcal/mol |
| GCTCGCACGTGATGGT | 0.06 kcal/mol |
| TTTCACACGTGTAAGT | 0.1 kcal/mol |
| ATAGCCACGTGGGAAG | 0.07 kcal/mol |
| ATGTGCACGTGGACGT | 0 kcal/mol |
| TAGGGCACGTGTACTG | -0.2 kcal/mol |
| CAATGCACGTGTTGGG | -0.04 kcal/mol |

| Sequence | relative binding free energy |
| --- | --- |
| ATAATCACGTGGTTTG | 0.08 kcal/mol |
| ATTTTCACGTGTATAG | 0.34 kcal/mol |
| ATATACACGTGTTTAA | -0.15 kcal/mol |
| AGCGTCACGTGAATGG | 0.34 kcal/mol |
| TGTGCCACGTGACTGG | 0.01 kcal/mol |
| ATATGCACGTGTAAAG | -0.08 kcal/mol |
| GGGGACACGTGGAGGT | 0.19 kcal/mol |
| ACGGCCACGTGGGGTT | -0.12 kcal/mol |
| ATGCACACGTGGAGTT | 0.07 kcal/mol |
| CGTATCACGTGAGTGA | 0.42 kcal/mol |
| TATTGCACGTGGGTTC | -0.15 kcal/mol |
| AAGTTCACGTGGTTTG | 0.33 kcal/mol |
| ATAGTCACGTGGTACG | -0.02 kcal/mol |
| CAGTTCACGTGATAGT | 0.37 kcal/mol |
| ATAGACACGTGTGTAG | 0.05 kcal/mol |
| GTAGTCACGTGAGTAG | 0.26 kcal/mol |
| GTTCTCACGTGAGTTA | 0.44 kcal/mol |
| GTTAGCACGTGTTTCG | -0.07 kcal/mol |
| CAGTACACGTGGTGCG | 0.07 kcal/mol |
| TATTGCACGTGCGTTA | -0.16 kcal/mol |
| TTCGACACGTGGGTGG | -0.07 kcal/mol |
| TGCATCACGTGTTAAG | 0.19 kcal/mol |
| TGGTGCACGTGATTGT | 0.08 kcal/mol |

| Sequence | relative binding free energy |
| --- | --- |
| TCTGCCACGTGTGTGT | -0.13 kcal/mol |
| TAAGTCACGTGGATAG | 0 kcal/mol |
| TATTTCACGTGTCTGG | 0.25 kcal/mol |
| GTACTCACGTGGATGG | 0.33 kcal/mol |
| GTTAACACGTGTGTGG | 0.14 kcal/mol |
| GAGCACACGTGAGGGG | 0.17 kcal/mol |
| GGGGACACGTGCTGGC | -0.05 kcal/mol |
| AGACGCACGTGGGGAG | -0.24 kcal/mol |
| GTTATCACGTGGTTAC | 0.18 kcal/mol |
| ATGGTCACGTGTGATG | 0.25 kcal/mol |
| AGGTGCACGTGAGATT | 0.16 kcal/mol |
| AAATTCACGTGTTTGT | 0.23 kcal/mol |
| AGATGCACGTGTGCTT | 0.07 kcal/mol |
| AATAGCACGTGAATTG | 0.32 kcal/mol |
| AATATCACGTGTTATT | 0.16 kcal/mol |
| TAATGCACGTGGATAT | -0.1 kcal/mol |
| CTGGGCACGTGGCGGC | -0.18 kcal/mol |
| TCGTGCACGTGCAGGG | -0.11 kcal/mol |
| TGGCGCACGTGTGTTT | -0.01 kcal/mol |
| ATAGGCACGTGAGTAT | -0.12 kcal/mol |
| GCTTGCACGTGGTCTG | -0.12 kcal/mol |
| TTGCGCACGTGGTTAC | -0.1 kcal/mol |
| ATTAGCACGTGGCTTA | -0.22 kcal/mol |

| Sequence | relative binding free energy |
| --- | --- |
| ATGGTCACGTGGCTGA | -0.06 kcal/mol |
| GTACGCACGTGAGGTA | 0.15 kcal/mol |
| TGTCACACGTGTTGAT | 0.05 kcal/mol |
| TGCGGCACGTGTGCTG | -0.09 kcal/mol |
| GAATTCACGTGTGGTG | 0.43 kcal/mol |
| TGTTTCACGTGAAAAG | 0.48 kcal/mol |
| ATGGGCACGTGAATAG | 0.15 kcal/mol |
| GTGAACACGTGGAATG | 0.07 kcal/mol |
| TGAAACACGTGGTGAT | -0.09 kcal/mol |
| AGGTTCACGTGTCGTG | 0.38 kcal/mol |
| AGGATCACGTGTAGGC | 0.18 kcal/mol |
| GGGGTCACGTGCAGCT | 0.08 kcal/mol |
| TGGTTCACGTGTGGAC | 0.26 kcal/mol |
| ATGAACACGTGGCGGT | 0 kcal/mol |
| TCTGGCACGTGGTGAG | -0.17 kcal/mol |
| TGTGGCACGTGGAGGG | -0.1 kcal/mol |
| CGTGTCACGTGGTATG | -0.14 kcal/mol |
| TTGCACACGTGCTGGG | 0.01 kcal/mol |
| TGGACCACGTGGAGAG | 0.05 kcal/mol |
| GGTCGCACGTGTGCGG | 0.01 kcal/mol |
| AGTGGCACGTGCCAGG | -0.29 kcal/mol |
| AAAGGCACGTGAGGAG | 0.07 kcal/mol |
| TATGTCACGTGGAATA | 0.06 kcal/mol |

| Sequence | relative binding free energy |
| --- | --- |
| AGTGTCACGTGAGCAG | 0.14 kcal/mol |
| AGCGACACGTGATGTT | 0.22 kcal/mol |
| GTCAACACGTGTGGCT | 0.26 kcal/mol |
| TATTTCACGTGTGATT | 0.22 kcal/mol |
| TGTTCCACGTGATTTT | 0.09 kcal/mol |
| AGGTACACGTGTAATT | 0.18 kcal/mol |
| AACTACACGTGGAGGT | 0.14 kcal/mol |
| TAGAGCACGTGTTCGG | -0.11 kcal/mol |
| TGGGACACGTGTGAAA | 0.09 kcal/mol |
| TTGCGCACGTGTGGAG | -0.05 kcal/mol |
| TGGGACACGTGGGTGC | -0.14 kcal/mol |
| ATGAGCACGTGGTCAT | -0.15 kcal/mol |
| TCTTACACGTGTTGGA | 0.12 kcal/mol |
| TGGGTCACGTGGATCG | 0.1 kcal/mol |
| TGTTGCACGTGACCGG | -0.12 kcal/mol |
| GAGCACACGTGGGGGA | 0.17 kcal/mol |
| TATAGCACGTGGGCGC | -0.17 kcal/mol |
| TTTCTCACGTGTGCTA | 0.23 kcal/mol |
| ATTGGCACGTGTAGCT | -0.17 kcal/mol |
| ATTTTCACGTGAAGAA | 0.31 kcal/mol |
| AAGTTCACGTGTGCTG | 0.18 kcal/mol |
| GTGCTCACGTGGGTCT | 0.13 kcal/mol |
| AGGGGCACGTGTCCGT | -0.21 kcal/mol |
